# Test results: publication PMC4336329 (PLoS ONE, 2015)
# The whole screen tested about 310,000 compounds, of which about 2,200 (0.71%) showed an effect of 50% or more. The effect is printed as a negative number. The list shows a part of the results.
# Target: human ether-à-go-go-related gene (hERG) potassium channel (human, UniProt Q12809)
# Experiment: primary screen, population patch clamp on CHO cells stably expressing hERG
# Chain of human ether-à-go-go-related gene (hERG) potassium channel (Q12809 whole entry, looked up): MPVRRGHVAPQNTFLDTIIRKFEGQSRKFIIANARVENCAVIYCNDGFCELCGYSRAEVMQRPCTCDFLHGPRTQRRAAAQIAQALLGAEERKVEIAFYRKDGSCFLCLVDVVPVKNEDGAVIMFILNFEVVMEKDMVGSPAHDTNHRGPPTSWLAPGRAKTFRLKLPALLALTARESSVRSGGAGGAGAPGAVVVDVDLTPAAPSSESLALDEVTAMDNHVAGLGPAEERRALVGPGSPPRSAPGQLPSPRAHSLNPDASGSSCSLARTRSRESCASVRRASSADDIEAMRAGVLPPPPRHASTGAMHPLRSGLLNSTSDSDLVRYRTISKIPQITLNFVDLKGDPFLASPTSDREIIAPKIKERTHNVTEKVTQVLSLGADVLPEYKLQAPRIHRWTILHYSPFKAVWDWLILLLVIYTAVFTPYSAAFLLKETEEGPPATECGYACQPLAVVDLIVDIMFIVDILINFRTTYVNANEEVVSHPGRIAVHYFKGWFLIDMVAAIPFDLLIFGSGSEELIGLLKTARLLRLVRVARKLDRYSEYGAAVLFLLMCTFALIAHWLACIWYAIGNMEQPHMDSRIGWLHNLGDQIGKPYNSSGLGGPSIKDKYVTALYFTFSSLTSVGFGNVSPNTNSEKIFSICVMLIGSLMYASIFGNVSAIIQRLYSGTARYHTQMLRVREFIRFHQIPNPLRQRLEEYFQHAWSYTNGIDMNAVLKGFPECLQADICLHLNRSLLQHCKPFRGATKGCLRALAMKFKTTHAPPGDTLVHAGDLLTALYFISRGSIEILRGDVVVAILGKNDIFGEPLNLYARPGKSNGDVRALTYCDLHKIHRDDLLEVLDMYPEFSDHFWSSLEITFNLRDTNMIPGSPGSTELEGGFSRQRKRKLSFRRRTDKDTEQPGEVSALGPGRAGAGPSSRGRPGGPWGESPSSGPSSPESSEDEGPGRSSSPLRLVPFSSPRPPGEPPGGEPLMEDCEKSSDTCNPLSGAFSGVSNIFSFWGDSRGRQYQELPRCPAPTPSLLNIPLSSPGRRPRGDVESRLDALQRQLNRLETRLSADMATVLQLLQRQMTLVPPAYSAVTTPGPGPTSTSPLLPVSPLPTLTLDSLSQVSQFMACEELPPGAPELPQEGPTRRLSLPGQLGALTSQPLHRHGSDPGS
row,Structure (SMILES),"hERG current change (%, negative = inhibition) at 1uM [%]"
1,CCc1ccc(NC(=O)C2CCN(C(=O)[C@@H]3Cc4ccccc4CN3)CC2)cc1,-26.6
2,Cc1ccccc1NC(=S)N(CCCN1CCOCC1)Cc1ccccn1,2.78
3,Cc1ccc(Oc2cnc3ccccc3n2)cc1,9.7
4,Clc1ccc(SCCn2ccnc2)cc1,5.04
5,O=C(NCc1cccc(Br)c1)C1CC2Cn3c(nc4ccccc43)C2N1c1ccccc1 (stereo not drawn),15
6,Cc1cc(=O)[nH]c(N2CCCNCC2)n1,9.57
7,CCCCSc1nc2c(=O)[nH][nH]c(=O)c2n1Cc1ccccc1,7.62
8,O=C(N1CCCCCC1)N1CCN(C(=O)N2CCCCC2)CC1,15.9
9,O=C(NCC1COc2ccccc2O1)c1ccc(Cl)c(S(=O)(=O)N2CCOCC2)c1 (stereo not drawn),-1.68
10,Cc1nc2cc(NCc3cc([N+](=O)[O-])ccc3O)ccc2n1Cc1ccccc1,3.58
11,O=C(NC1CCCc2c1cnn2-c1cc(F)cc(F)c1)c1ccc[n+]([O-])c1 (stereo not drawn),8.61
12,CC(C)(C)c1[nH]nc2c1C(c1ccoc1)C(C#N)=C(N)O2 (stereo not drawn),2.24
13,O=C(CSc1nc(=O)n(CCCN2CCOCC2)c2c1CCCC2)Nc1ccc(F)cc1F,4.72
14,N#Cc1c(Nc2ccccc2)sc(C(=O)C2CC2)c1N,9.86
15,CCOC(=O)C1CCCN(c2nnnn2-c2ccccc2)C1 (stereo not drawn),4.43
16,COc1ccc(C)c(-n2c(N)cc(=O)n(Cc3ccccc3)c2=O)c1,12.3
17,COc1ccc(CCn2c(N)c(S(=O)(=O)c3cccs3)c3nc4ccccc4nc32)cc1OC,9.62
18,C/C=C/c1ccc(OCCCCOc2ccccc2C(C)=O)c(OC)c1,5.6
19,Brc1ccccc1-c1cnco1,6.1
20,COc1ccc(S(=O)(=O)Nc2ccc(-n3cccc3)cc2)cc1,9.03
21,O=C(c1ccccc1F)c1cn(CC(=O)N2CCCCC2)c2ccccc12,11
22,COc1ccccc1NS(=O)(=O)c1cccc(C(=O)NCC(c2ccc(F)cc2)N2CCOCC2)c1 (stereo not drawn),-2.64
23,c1ccc(Nc2cccc3c(Nc4ccccc4)cccc23)cc1,3.53

row,Structure (SMILES),"hERG current change (%, negative = inhibition) at 1uM [%]"
1,CCOc1ccc(C(=O)Nc2cccc3ncccc23)cc1Cl,15.4
2,c1ccc(NC2=NCCN2CCCC2CCCC2)cc1,-15.6
3,COc1ccc(S(=O)(=O)N2CCCCCC2)cc1C(=O)N(C)Cc1cccs1,3.31
4,CCC(C)NS(=O)(=O)c1ccc(S(=O)(=O)N(CC(=O)Nc2ccccc2)CC2CCCO2)cc1 (stereo not drawn),5.68
5,COCCNC(=O)CN(C(=O)CCC(=O)Nc1ccccn1)c1cc(C)ccc1C,4.31
6,O=C1CSC(=O)N1CCOCCN1C(=O)CSC1=O,11
7,O=c1[nH]nc(SCCS(=O)(=O)c2ccc(F)cc2)n1-c1ccccc1C(F)(F)F,11.1
8,NC(=O)c1cc(S(=O)(=O)NCCc2ccccc2)cs1,14.8
9,COC(=O)c1ccccc1NC(=O)Cn1nc2n(C)c3ccccc3n2c(=O)c1=O,8.08
10,CCc1ccccc1NC(=O)CSc1ccsc1[N+](=O)[O-],17.5
11,Cc1ccc(Cn2c(=O)c3ccccc3n3nc(C)cc23)cc1,1.62
12,CCCc1nc2ccccc2c(=O)n1-c1cccc(OC)c1,5.11
13,CCc1nnc(NS(=O)(=O)c2ccc(NC(=O)COc3ccc4ccccc4c3)cc2)s1,9.24
14,Cc1ccc(NC(=O)C2CCCC2)cc1Cl,5.32
15,O=C(N/N=C/c1ccc(OCCCF)cc1)c1ccc(C(F)(F)F)cc1,11.7
16,COc1ccc(-c2cc(-c3nnc(COC(=O)c4ccncc4)o3)c3ccccc3n2)cc1OC,9.71
17,C=CCSc1nc2ccsc2c(=O)n1-c1ccccc1,10.2
18,Brc1nc(-c2ccccc2)nc(-c2ccccc2)c1Br,5.09
19,CC1O[C@@H]2O[C@](O[C@H](C)CC[C@@H](C)O)(c3ccccc3)O[C@@H]2C[C@H]1O (stereo partly drawn),9.55
20,CCCc1nc2ccccc2c(=O)n1/N=C/c1ccc(O)c(O)c1,-2.15
21,CN(C)CCCn1c(=S)[nH]c2ccccc2c1=O,5.62
22,O=S(=O)(c1ccc(Br)cc1)N1CCN(c2ccccc2)CC1,6.77
23,COc1ccc(NCC(=O)N/N=C/C(C)c2ccccc2)cc1 (stereo not drawn),4.77

row,Structure (SMILES),"hERG current change (%, negative = inhibition) at 1uM [%]"
1,CCOC(=O)N1CCC(NC(=O)CNS(=O)(=O)c2ccc(Br)s2)CC1,-4.59
2,CCS(=O)(=O)NCC(c1cccnc1)N1CCN(c2ccc(F)cc2)CC1 (stereo not drawn),7.78
3,Cc1cc(-c2cc(-c3ccc(Cl)cc3)on2)nc(NCC2CC2)n1,12
4,COc1ccc(C(=O)CC(=O)C(=O)Nc2ccc(OC)c(Cl)c2)cc1,10.7
5,CCOc1ccc2oc(C(=O)OC(C(=O)NC(N)=O)C(C)C)c(C)c2c1 (stereo not drawn),4.76
6,CCCCc1ccc(NC(=O)CN2NS(=O)(=O)c3ccccc3C2=O)cc1,14.4
7,Cc1ccc(OCCCCNC2CCCC(C)C2C)c(C)c1.O=C(O)C(=O)O (stereo not drawn),9.73
8,CCOC(=O)C1(Cc2ccccc2)CCCN(Cc2ccccn2)C1 (stereo not drawn),1.88
9,CCN1CCN(c2cc(C)c3cc(NC(=O)CCC(=O)N4CCN(c5ccccc5OC)CC4)ccc3n2)CC1,22.4
10,Nc1nnc(SCC(=O)c2ccco2)s1,1.58
11,Cl.N[C@@H](Cc1ccccc1)c1nnc(SCc2ccccc2F)o1,17
12,CCOC(=O)c1nnn(-c2nonc2N)c1CSc1ccc(C)cc1,5.3
13,CN1CCN(C(=O)c2cnn(-c3ccccc3)c2NC(=O)c2ccc([N+](=O)[O-])cc2)CC1,-42.2
14,O=c1c2ccccc2nc2n1CCCS2,8.55
15,Cc1ccc(-c2nnc(/C=C/c3ccccc3)o2)cc1,-3.81
16,COC(=O)c1c(NC(=O)CSc2nccn2C)sc(C)c1C,0.619
17,O=C1C=C(c2ccc(F)nc2)C[C@@H](c2ccc3c(c2)OCO3)C1,2.34
18,CC(=O)c1ccc(S(=O)(=O)NCCC(=O)NCCc2c[nH]c3ccccc23)cc1,2.14
19,Nc1ncc([N+](=O)[O-])c(N2CCCCCC2)n1,17.7
20,CSc1ccc(CN(C)CC(=O)NCCc2ccccc2)cc1,6.72
21,Cc1cc(C)cc(NC(=O)CCn2ccnc2)c1,10.5
22,CC1=NN(C(N)=S)C(=O)C1N=Nc1cccc([N+](=O)[O-])c1 (stereo not drawn),17
23,CCCCCn1c(=O)c(C(=O)NCc2ccccc2)c(O)c2ccccc21,17.3

row,Structure (SMILES),"hERG current change (%, negative = inhibition) at 1uM [%]"
1,CCOC(=O)c1c(-c2cccs2)csc1NC(=O)C(C)(C)C,8.8
2,CC1(C(=O)NC(=S)NNC(=O)c2ccncc2)CCCCC1,9.5
3,Cc1cccc(C(=O)Nc2ccc3c(c2)ncn3C)c1,15
4,Cc1ccccc1-n1nc2c(c1NC(=O)c1cc3ccccc3oc1=O)CS(=O)(=O)C2,-7.36
5,CC(=O)N1CC(C)Sc2ccc(S(=O)(=O)NCc3ccccc3Cl)cc21 (stereo not drawn),11.8
6,CC(C)(C)c1cccc(/C=N/O)c1O,10.1
7,C[C@@H]1CC[C@@]2(OC1)O[C@H]1C[C@H]3[C@@H]4CC=C5C[C@@H](O)[C@H](O)C[C@]5(C)C4CC[C@]3(C)[C@H]1[C@@H]2C (stereo partly drawn),19.9
8,O=C(CNC(=O)c1ccncc1)N/N=C/c1ccc(O)cc1O,11
9,CCOC(=O)c1ccc(Nc2cnc3ccccc3n2)cc1,3.66
10,COc1ccc(Cl)cc1N1C(=O)/C(=C\c2sccc2C)N=C1SCC(=O)NC1CC1,6.01
11,CC(OC(=O)c1snc(C(=O)NC2CCCCC2)c1N)C(=O)NC(C)(C)C (stereo not drawn),7.55
12,O=C(COC(=O)c1ccc(S(=O)(=O)C(F)F)cc1)Nc1ccccc1C(=O)NC1CC1,13.7
13,CC1CCCCN1C(=O)CSc1nnc(-c2ccc(Cl)s2)o1 (stereo not drawn),-0.374
14,O=c1[nH]c(NCCCO)nc2c1C1(CCCC1)Cc1ccccc1-2,10.5
15,C=C1CC[C@H](O)C/C1=C/C=C1\CCC[C@]2(C)[C@@H]([C@H](C)/C=C/[C@H](C)C(C)C)CC[C@@H]12,5.67
16,COc1ccc(NCc2nnc(SCC(=O)Nc3cccc(C)c3)o2)cc1,12.9
17,Cc1nnc(NC(=O)C2CCCN2S(=O)(=O)c2ccc(Cl)cc2)s1 (stereo not drawn),-9.52
18,Cc1ccc(-c2ccccc2NC(=O)C2C3C=CC(C3)C2C(=O)O)o1 (stereo not drawn),20
19,O=S(=O)(CCSc1nc2ccccc2o1)c1nc2ccccc2s1,2.25
20,C=CCNC(=O)COc1c(C)ccc(C)c1C,2.35
21,O=C(COC(=O)CCCN=C1NS(=O)(=O)c2ccccc21)NC(=O)NC1CCCC1,15.5
